# Source: PubChem BioAssay AID686978 (National Center for Advancing Translational Sciences (NCATS), 2013)
# “And” between values parts separate entries of the source, which are not always exact repeats. Identical values can stand only once. Out of some 420,000 compounds screened, about 64,000 (15%) were called active. The inconclusive results got no clear call from the source; some entries with a clear call stand among them for comparison. Calls follow the shape of the dose curve; as a rule, active = well fitted inhibition curve with a large enough effect; inconclusive = small, poorly fitted or top-dose-only effect; inactive = flat fitted curve, though single readings scatter. A potency beside an inconclusive call is a rough fit, not a confirmed value.
# Test: qHTS for Inhibitors of human tyrosyl-DNA phosphodiesterase 1 (TDP1): qHTS in cells in absence of CPT; also: nearly all actives have a fitted effect of over 55% in size
# Settings: DT40 Tdp1-/- hTDP1 cells, no CPT, ATP luminescence, 48 h; activity change, negative = growth inhibition: at 46.2 µM (top of the series) unless noted
# Method in brief: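 Compound effects on proliferation are scored in DT40 Tdp1-/-;hTDP1 cells in the absence of CPT. ATP levels (CellTiter-Glo luminescence) are recorded after a ≥48 hr, 37 °C incubation.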
# % is scaled to controls: 0 for no effect and ±100 for the full control effect; potency is read from the fitted curve at half-maximal effect; tags tell the direction and shape of the fitted curve.
SMILES,Potency,"activity change, negative = growth inhibition"
COC(=O)Nc1ccc(S(=O)(=O)N2CCCc3ccccc32)cc1,active: 2.31 µM,–
COc1ccc(-n2c(SCc3nnc(-c4ccccc4)o3)nnc2-c2ccccc2)cc1,"inconclusive: 29.1 µM [inhibitor, single point]",–
CC(=O)c1cn(CC(=O)Nc2ccccc2C(F)(F)F)c2ccccc12,"inconclusive: 23.1 µM [inhibitor, partial curve]",–
Cc1cc(N)ccc1-n1c(C)ccc1C,"inconclusive: 20.6 µM [inhibitor, single point]",–
Cc1cc(C(=O)COC(=O)c2cccc(NS(C)(=O)=O)c2)c(C)n1CC1CCCO1 (stereo unspecified),–,inactive: -23.5%
CCOCCc1nn2c(=O)cc(COC(=O)c3cccs3)nc2s1,–,inconclusive: -31% [inhibitor]
CCCc1ccc(C(O)c2ncc(-c3ccccc3)[nH]2)cc1 (stereo unspecified),–,inactive: -59.9%
CC(=O)OCc1cc(=O)n(C)c(=O)n1C,–,inactive: -3.09%
CC(C)Cc1ccc(-c2cc3nc(NCCCn4ccnc4)ccn3n2)cc1,"inconclusive: 18.4 µM [inhibitor, single point]",–
CCN(CC)c1ccc(NC(=O)Nc2cccc(C(C)=O)c2)cc1,"inconclusive: 8.2 µM [inhibitor, partial curve, poor fit]",–
CCn1c2ccccc2c2nnc(N3CCN(c4cccc(C)c4C)CC3)nc21,"inconclusive: 2.59 µM [inhibitor, single point]",–
O=C1C=CC(=O)N1c1ccc2ccccc2c1,active: 5.17 µM,–
CCOC(=O)c1c(NC(=O)c2nn(CC)cc2Br)sc2c1CCCCC2,"inconclusive: 29.1 µM [inhibitor, single point]",–
O=C(NCCCN1CCOCC1)c1ccc2c(c1)N(Cc1ccccc1)C(=O)c1ccccc1S2,"inactive and inconclusive: 23.1 µM [inhibitor, single point]",–
Cc1cccc(N2CCN(C(=O)Cc3cn(C)c4ccccc34)CC2)c1C,"inconclusive: 23.1 µM [inhibitor, single point]",–
O=C(NCc1ccccn1)c1c(-c2ccccc2)sc2ccccc12,"inconclusive: 29.1 µM [inhibitor, single point]",–
COc1ccc2[nH]c3nc(SCC(=O)NC4CC4)nnc3c2c1,–,inconclusive: -32.2% [inhibitor]
O=C(O)c1ccc2cccc(Cl)c2c1O,"inconclusive: 18.4 µM [inhibitor, partial curve]",–
CCOc1ccc(N=Nc2c(C)noc2C)cc1,–,inactive: 18.2%
NC/C=C/C(=O)O,inactive,–
COc1ccccc1NC(=O)Nc1nc(CC(=O)Nc2ccc(N(C)C)cc2)cs1,"inconclusive: 18.4 µM [inhibitor, single point]",–
